# Test results as given in PubChem BioAssay AID1030 (National Center for Advancing Translational Sciences (NCATS), 2008).
# The whole screen tested about 220,000 compounds, of which about 16,000 (7.3%) were called active. The inconclusive results got no clear call from the source; some entries with a clear call stand among them for comparison. Calls come from the whole dose curve; as a rule, active = well fitted inhibition curve with a large enough effect (not every such curve was filed as active); inconclusive = small, poorly fitted or top-dose-only effect, or another doubt; inactive = no such curve, though single readings can be large or run the other way. No potency is given beside an inconclusive call; the fits are too rough.
# Target: Aldehyde dehydrogenase 1A1 (Homo sapiens) (UniProt P00352)
# Sequence of UniProt P00352 (P00352 whole entry, looked up): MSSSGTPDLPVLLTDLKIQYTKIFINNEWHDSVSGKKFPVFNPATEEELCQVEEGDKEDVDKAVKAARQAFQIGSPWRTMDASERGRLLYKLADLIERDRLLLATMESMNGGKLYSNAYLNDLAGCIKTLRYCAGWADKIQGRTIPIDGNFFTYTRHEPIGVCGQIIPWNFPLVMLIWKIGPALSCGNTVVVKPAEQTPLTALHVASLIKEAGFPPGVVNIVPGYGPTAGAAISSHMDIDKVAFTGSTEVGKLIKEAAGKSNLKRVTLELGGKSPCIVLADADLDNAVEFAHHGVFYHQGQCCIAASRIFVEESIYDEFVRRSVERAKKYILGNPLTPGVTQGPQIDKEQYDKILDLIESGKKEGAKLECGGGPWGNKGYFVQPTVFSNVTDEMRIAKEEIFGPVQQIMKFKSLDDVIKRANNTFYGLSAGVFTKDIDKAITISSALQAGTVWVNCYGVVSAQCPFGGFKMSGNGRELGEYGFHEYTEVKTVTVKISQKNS
# Experiment: qHTS Assay for Inhibitors of Aldehyde Dehydrogenase 1 (ALDH1A1);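 for activity, negative = inhibition: plate controls were no enzyme wells and a reference inhibitor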
# Conditions: Purified ALDH1A1, NADH fluorescence, propionaldehyde substrate; series mostly up to 75.3 µM; activity, negative = inhibition: at the top concentration
# Potency is the fitted concentration of half-maximal effect; tags give direction and shape of the fitted curve.
Structure (SMILES),Potency,"activity, negative = inhibition"
COCCCn1nnnc1SCC(=O)Nc1ccc2c(c1)OCCO2,active: 12.6 µM,–
CC1(C)CC(=O)C(C(C2=C(O)CC(C)(C)CC2=O)c2ccc([N+](=O)[O-])cc2)C(=O)C1 (stereo not drawn),"inconclusive [inhibitor, single point]",–
CCC(C)NC(=O)c1nn(C)c(=O)c2ccccc12 (stereo not drawn),–,inactive: 5.8%
OCC1(CCOc2ccccc2)CCN(Cc2ccc3cccc(F)c3n2)CC1,"inconclusive [inhibitor, single point]",–
COc1ccccc1-n1cnnc1SCC(=O)Nc1cccnc1Cl,active: 25.1 µM,–
O=[N+]([O-])c1ccc(Cl)c(/C=N/N2CCN(Cc3ccc(Cl)cc3)CC2)c1,"inconclusive [inhibitor, single point]",–
O=C1CC(C(=O)Nc2ccc(Cl)cc2[N+](=O)[O-])C2(CCCCC2)O1 (stereo not drawn),–,inactive: 2.41%
COc1ccc(C(=O)OCC(=O)NCc2ccc3c(c2)OCO3)cc1[N+](=O)[O-],active: 5.01 µM,–
Cc1onc(-c2ccccc2Cl)c1C(=O)NC(=S)Nc1ccccc1F,active: 3.16 µM,–
COc1ccc(OC)c(N/C(=N/C(=S)Nc2ccccc2)Nc2nc(C)cc(C)n2)c1,"inconclusive [inhibitor, single point]",–
O=C1CC(N2CCC(O)CC2)C(=O)N1c1ccc(Br)cc1 (stereo not drawn),active: 22.4 µM,–
CCc1nnc(NCC(=O)N2CCc3ccccc32)s1,active: 25.1 µM,–
COC(=O)CCC(=O)N1CCCC(CNS(=O)(=O)c2ccc(OC)cc2)C1 (stereo not drawn),active: 8.91 µM,–
CCN1CC2CCCC3(C1)C(=O)NC1(CCCCC1)N=C23 (stereo not drawn),active: 31.6 µM,–
COc1cccc(/C=N/NC(=S)Nc2cccnc2)c1,–,inactive: 5.07%
CNC(=O)c1oc(-c2ccccc2)nc1C,–,inactive: 15.2%
CN1C2C=C3C(C#N)=C(N)C(C#N)(C#N)[C@@H](c4cccs4)C3C1CC2 (stereo partly drawn),"inconclusive [inhibitor, partial curve]",–
CC1CN(S(=O)(=O)c2ccc(C(=O)Nc3ccc(S(=O)(=O)Nc4ncccn4)cc3)cc2)CC(C)O1 (stereo not drawn),–,inactive: 15.3%
COc1ccc(-n2cc(CNC3CCOCC3)c(-c3cccc(F)c3)n2)cc1,"inconclusive [inhibitor, partial curve]",–
O=[N+]([O-])c1ccccc1S(=O)(=O)NCC1CCC(CNCC2CCc3ccccc3C2)CC1 (stereo not drawn),–,inactive: -6.77%
CC1Cc2nc(SCC(=O)OCc3ccccc3)n(C)c(=O)c2S1 (stereo not drawn),"inconclusive [inhibitor, single point]",–
Cc1cc(C)cc(N(CC(=O)N2CCc3ccccc32)S(=O)(=O)c2c(C)noc2C)c1,active: 8.91 µM,–
CCC(C)(C)n1nnnc1C(c1ccc(OC)c(OC)c1)N1CCN(c2ccccc2)CC1 (stereo not drawn),"inconclusive [inhibitor, single point]",–
O=C(c1ccc(F)cc1F)C1CCN(c2ccc([N+](=O)[O-])cn2)CC1,active: 20 µM,–

Structure (SMILES),Potency,"activity, negative = inhibition"
COc1ccc([N+](=O)[O-])cc1NC(=O)CCN1CCN(C)CC1,"inconclusive [inhibitor, single point]",–
Cc1ccc(-c2csc3nnc(SCC(=O)Nc4nsc(-c5ccccc5)n4)n23)cc1,active: 8.91 µM,–
CCOC(=O)COc1ccc(/C=C/[N+](=O)[O-])c(OCC(=O)OCC)c1,"inconclusive [inhibitor, partial curve]",–
O=c1c2ccccc2nc(-c2cccs2)n1-c1cccc2ccccc12,"inconclusive [inhibitor, single point]",–
O=C(CSc1nnc(-c2ccccc2)o1)NC1CCCCC1,–,inactive: 0.945%
NS(=O)(=O)c1ccc(N2N=C(c3ccccc3)CC2c2ccccc2)cc1 (stereo not drawn),"inconclusive [inhibitor, partial curve]",–
O=C(CNc1ccc(F)cc1)N/N=C/C1CC=CCC1 (stereo not drawn),"inconclusive [inhibitor, single point]",–
COc1cc2oc(=O)cc(-c3cccc(-c4ccc(C(C)=O)cc4)c3)c2c(OC)c1OC,"inconclusive [inhibitor, partial curve]",–
COc1ccc(/C=N/NC(=O)c2nc(-c3ccccc3)n(-c3ccccc3)n2)cc1OC,"inconclusive [inhibitor, single point]",–
CC(=O)c1ccc(NC(=S)NNC(=O)c2ccncc2)cc1,"inconclusive [inhibitor, single point]",–
CC(C)CCn1c(CN2CCOCC2)nc2c1c(=O)n(C)c(=O)n2C,active: 14.1 µM,–
O=CNc1ncn[nH]1,–,inactive: 4.54% [at 13.5 µM]
CCN(CC)S(=O)(=O)c1ccc(O)c(NS(=O)(=O)c2ccccc2F)c1,active: 12.6 µM,–
CNC(=O)/C(C#N)=C/c1c(N(Cc2ccccc2)Cc2ccccc2)nc2ccccn2c1=O,"inconclusive [inhibitor, partial curve]",–
CC1(C)CC(=O)C(CC(=O)Nc2ccc(S(N)(=O)=O)cc2)=C(O)C1,"inconclusive [inhibitor, partial curve]",–
CN1CCC2(CC1)N=C(c1ccc(F)cc1)C(=S)N2C(=O)c1ccc(C(C)(C)C)cc1,active: 17.8 µM,–
CCOC(=O)CSC1=C(C#N)C(c2ccc(F)cc2)C(C(C)=O)=C(C)N1 (stereo not drawn),active: 22.4 µM,–
COc1ccc(CN2CCNC(=O)C2CC(=O)N2CCCCO2)c(OC)c1 (stereo not drawn),–,inactive: -2.12%
O=C(NCc1cccnc1)c1cccn2c(=O)c3sccc3nc12,"inconclusive [inhibitor, partial curve]",–
COc1nc(NCc2ccco2)nc(NC2CCCCC2)n1,"inconclusive [inhibitor, single point]",–
Cc1noc(C)c1-c1nccc(NC2CC2)n1,–,inactive: -3.58%
O=C(CC1=NC2(CCCC2)Cc2ccccc21)N1CCOCC1,"inconclusive [inhibitor, single point]",–
CC(C)(O)C#Cc1ccc(C(=O)N2CCN(c3ccc([N+](=O)[O-])cc3)CC2)cc1,active: 20 µM,–
CC(C)(C)CC(=O)N1CCC(c2nc3c(nnn3Cc3c(F)cccc3Cl)c(=O)[nH]2)CC1,–,inactive: 2.52%
